From PubChem BioAssay AID1631 (National Center for Advancing Translational Sciences (NCATS), 2009)
In all, about 260,000 compounds went through this assay and about 890 (0.34%) were called active. This list was built around the results that the source calls inconclusive (neither active nor inactive); the mix of calls is not that of the screen. Calls come from the whole dose curve; as a rule, active = well fitted activation curve with a large enough effect; inconclusive = small, poorly fitted or top-dose-only effect; inactive = no such curve, though single readings can be large or run the other way. Potencies of inconclusive entries are left out as doubtful fits.

target: Pyruvate kinase PKM (Homo sapiens) (UniProt P14618); experiment: qHTS Assay for Activators of Human Muscle isoform 2 Pyruvate Kinase; conditions: purified PKM2, Kinase-Glo ATP luminescence; Potency: activation; activation: at 57.5 µM (top of the series), 0% is enzyme alone, no compound; note: nearly all actives have a fitted effect of over 55% in size
Outline: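 Kinase-Glo luminescence reports ATP generated from ADP (0.1 mM) and PEP (0.5 mM) by purified hPK-M2 after 1 h at room temperature, pH 7.2 imidazole buffer; intermediate enzyme activity allows detecting inhibitors and activators.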
% is set by controls: 0 for no effect and ±100 for the full control effect; potency is the fitted concentration of half-maximal effect; tags give direction and shape of the fitted curve.

Chain of UniProt P14618 (P14618 whole entry, looked up, canonical isoform): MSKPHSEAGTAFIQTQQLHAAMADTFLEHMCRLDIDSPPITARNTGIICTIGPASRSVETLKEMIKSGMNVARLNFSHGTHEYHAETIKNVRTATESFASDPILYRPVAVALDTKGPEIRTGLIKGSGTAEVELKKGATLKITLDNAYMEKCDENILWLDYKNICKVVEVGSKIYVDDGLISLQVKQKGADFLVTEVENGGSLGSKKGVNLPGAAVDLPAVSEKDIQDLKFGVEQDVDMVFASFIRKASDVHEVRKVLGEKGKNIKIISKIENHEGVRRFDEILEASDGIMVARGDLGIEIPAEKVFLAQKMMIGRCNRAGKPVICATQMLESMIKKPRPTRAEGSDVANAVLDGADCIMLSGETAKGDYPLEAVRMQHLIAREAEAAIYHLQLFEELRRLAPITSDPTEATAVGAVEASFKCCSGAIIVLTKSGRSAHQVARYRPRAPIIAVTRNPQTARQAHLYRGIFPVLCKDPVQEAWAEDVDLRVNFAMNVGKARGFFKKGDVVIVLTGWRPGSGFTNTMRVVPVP

| Compound | Potency | activation |
| --- | --- | --- |
| CC(=O)c1cnc2nc(SCc3ccccc3C)nn2c1C | active: 12.6 µM |  |
| CCOc1ccc(S(=O)(=O)NCc2csc(C)n2)cc1 | inconclusive [rising, single point] |  |
| O=C(CSc1nnc(-c2cccs2)n1Cc1ccccc1)N1CCc2ccccc2C1 | inconclusive [rising, single point] |  |
| CCOC(=O)c1cc2c(C)n(-c3ccc(OCC)cc3)c(C)c2cc(C(=O)OCC)c1=O | inconclusive [rising, single point] |  |
| Cc1ccc(-c2nn(-c3cccc(F)c3)cc2CN(Cc2nccn2C)C(C)C)o1 | inconclusive [rising, partial curve] |  |
| CN(CCOc1ccccc1)CC(=O)Nc1ccc(S(=O)(=O)N2CCCC2)cc1 | inconclusive [rising, single point] |  |
| COc1ccc(C2CC(=O)c3c(ccc4ccccc34)N2)cc1OC (stereo not given) | inconclusive [rising, partial curve, poor fit] |  |
| CC(C)=CCc1c(O)ccc2c1OC(c1ccc(O)c(O)c1)CC2=O (stereo not given) | inconclusive [rising, partial curve] |  |
| COc1ccc(CNC(=O)Nc2cccs2)cc1OC | active: 17.8 µM |  |
| O=C(N/N=C/c1ccc(F)cc1)c1cc(-c2ccco2)nc2ccccc12 | inconclusive [rising, single point] |  |
| Cc1cc(C)n(-c2ccc3nncn3n2)n1 | inconclusive [rising, single point] |  |
| CCC(C)(C(=O)NC1CCCCC1)N(Cc1ccco1)C(=O)Cc1cccs1 (stereo not given) | inconclusive [rising, single point] |  |
| CC(=O)C(Sc1nn(C)c(=S)s1)C(=O)Nc1ccccc1 (stereo not given) |  | inactive: 5.82% |
| Cc1oc(/N=C/c2cccc3ccccc23)c(C#N)c1C | inconclusive [rising, single point] |  |
| Cc1ccc(NC(=O)CSc2ncn(-c3ccccc3)n2)cc1C |  | inactive: 8.85% |
| CCN(Cc1ccccc1)C(=O)c1nn(-c2ccc(OC)cc2)c(=O)c2c1c1ccccc1n2C |  | inactive: -4.56% |
| O=C(NN1C(=O)/C(=C/C=C/c2ccco2)SC1=S)c1ccccc1O | inconclusive [rising, single point] |  |
| N#Cc1ccccc1Cn1cc(/C=C/[N+](=O)[O-])c2ccccc21 | inconclusive [rising, single point] |  |
| Cc1ccc(NC(=O)CSc2nnc(-c3ccco3)c(-c3ccco3)n2)cc1 | inconclusive [rising, single point] |  |
| CCOC(=O)c1c(C)noc1-c1ccc(Br)o1 | inconclusive [rising, single point] |  |
| Cc1ccc2[nH]c(O)c(N=NC(=O)CCc3ccccc3)c2c1Br | inconclusive [rising, full curve] |  |
| CCCCn1cnc2c(cnn2-c2ccc(F)cc2)c1=O |  | inactive: -0.327% |
| CCCN(CC1CC1)C(=S)NC(=O)C1CC1 | inconclusive [rising, single point] |  |
| CC(C)CC(=O)/C(=C\c1ccc(Cl)cc1Cl)n1cncn1 | inconclusive [rising, single point] |  |
| C=C1C2c3ccccc3C(CC2(C)O[Si](C)(C)C)N1C(=O)OC (stereo not given) |  | inactive: -3.52% [at 11.5 µM, 0% is enzyme alone, no compound] |

| Compound | Potency | activation |
| --- | --- | --- |
| CC(C)CCNC(=O)C(=O)Nc1ccccc1 |  | inactive: -7.25% |
| Cc1ccccc1C(=O)NC1CCN(CC(=O)NCc2cccs2)CC1 |  | inactive: -4.48% |
| O=C(Cc1ccccc1)N1CCC(C(=O)N2CCN(c3ccc(F)cc3)CC2)CC1 | inconclusive [rising, single point] |  |
| Fc1ccc(Nc2nc(NCc3ccco3)c3ccccc3n2)cc1 |  | inactive: -2.11% |
| CCOc1ccc(NC(=S)N(Cc2ccc(Cl)cc2)Cc2ccco2)cc1 |  | inactive: -4.65% |
| Cc1nc(SCC(=O)NCc2ccco2)nc(C)c1C | inconclusive [rising, partial curve] |  |
| COc1ccccc1Nc1nc(N)nc(CN2CCCCCC2)n1 |  | inactive: -2.09% |
| O=C(CSc1ncnc2sc3c(c12)CCCC3)c1ccccc1 |  | inactive: 7.5% |
| O=C(NCc1ccco1)c1ccc2c(c1)C(=O)c1ccccc1-2 | inconclusive [rising, partial curve, poor fit] |  |
| CC(C)Cn1c(-c2ccco2)nc2c(c(=O)c3ccccc3n2C)c1=O | inconclusive [rising, partial curve, poor fit] |  |
| Cn1c(=O)n(C)c2cc(NS(=O)(=O)c3cccs3)ccc21 | inconclusive [rising, single point] |  |
| CC(=O)c1cccc(N(C(=O)c2ccco2)C(C(=O)NC2CCCC2)c2ccccc2F)c1 (stereo not given) |  | inactive: 2.54% |
| COc1ccc(-n2cnnc2SCC(=O)c2ccc(S(=O)(=O)N3CCOCC3)cc2)cc1 | inconclusive [rising, partial curve] |  |
| CCn1c(COc2cccc(C)c2)nnc1SCC(=O)CC(=O)Nc1ccccc1OC |  | inactive: -1.53% |
| NCCNc1ccc([N+](=O)[O-])c(Sc2nc3ccccc3[nH]2)c1 |  | inactive: 2.01% |
| Cc1ccc(C)c(CSc2ccc3nnc(-c4ccccn4)n3n2)c1 | inconclusive [rising, single point] |  |
| CC(=O)N1N=C(c2ccc([N+](=O)[O-])cc2)CC1c1ccccc1Cl (stereo not given) | inconclusive [rising, partial curve] |  |
| CC(=O)c1c(C)[nH]c(C(=O)Nc2cccc3ccccc23)c1C | inconclusive [rising, partial curve] |  |
| CC(C)OC(=O)Nc1ccc2c(c1)N(C(=O)CCN1CCN(CCO)CC1)c1ccccc1CC2 | inconclusive [rising, single point] |  |
| CN1c2ccccc2C(C)(C)C12C=Nc1c(ccc3ccccc13)O2 (stereo not given) | inconclusive [rising, partial curve] |  |
| CCOC(=O)c1[nH]c2ccc(OC)cc2c1NC(C)=O |  | inactive: -2.19% |
| N#C/C(=C\c1ccccc1[N+](=O)[O-])C(=O)NCc1ccccc1 | inconclusive [rising, single point] |  |
| CC(C)=NOc1nc(N(C)C)nc(N2CCOCC2)n1 |  | inactive: 6.95% |
| Cc1cc(NC(=O)CSc2nc3c(c(=O)n(C)c(=O)n3C)n2C(C)C)no1 | active: 28.2 µM |  |
| COC(=O)c1sc(N2C(=O)C(=O)/C(=C(/O)c3ccc(C)cc3)C2c2ccco2)nc1C (stereo not given) | inconclusive [rising, partial curve] |  |

| Compound | Potency | activation |
| --- | --- | --- |
| O=C1CCN(S(=O)(=O)c2ccccc2)CCN1CCOCc1cccc(F)c1 | inconclusive [rising, single point] |  |
| Cc1c(F)cccc1NS(=O)(=O)c1ccc2c(c1)c(=O)n(C)c(=O)n2C | active: 3.55 µM |  |
| COc1ccc(OC)c(NC(=O)Cn2cc(C(=O)c3ccco3)c3ccccc32)c1 | inconclusive [rising, single point] |  |
| Cc1ccc(-n2cc(S(=O)(=O)c3ccc(C)cc3)[nH]c2=O)cc1 | active: 7.08 µM |  |
| CC(=O)c1c(C)[nH]c(C(=O)Nc2cc(S(=O)(=O)N(C)C)ccc2C)c1C | inconclusive [rising, single point] |  |
| CCc1cccc2cc3c(N)c(C(=O)Nc4ccc(S(=O)(=O)N5CCCC5)cc4)sc3nc12 |  | inactive: -2.42% |
| O=C1CSC2(C(=O)N3CCCc4cccc2c43)N1c1cccc(C(F)(F)F)c1 (stereo not given) |  | inactive: 5.76% |
| Cc1cc(NC(=O)c2cnn3c(C(F)(F)F)cc(-c4ccccc4)nc23)no1 | active: 3.55 µM |  |
| O=C(c1ccc2nc(Cc3cccc(Cl)c3)oc2c1)N1CCOCC1 | inconclusive [rising, single point] |  |
| Cc1cc2c(NC(=O)Nc3ccc(C(C)(C)C)cc3)cccc2nn1 | inconclusive [rising, single point] |  |
| O=[N+]([O-])c1cc(Cl)ccc1NCCc1ccccn1 | inconclusive [rising, partial curve] |  |
| C=CCn1c(SCC(=O)N2CCOCC2)nc2scc(-c3ccco3)c2c1=O | active: 14.1 µM |  |
| COc1ccc(Cn2nnnc2CN2CCN(c3ccc(OC)cc3)CC2)cc1 | inconclusive [rising, single point] |  |
| Cc1ccc(S(=O)(=O)N(CC(=O)NCCSCc2ccco2)c2ccc(F)cc2)cc1 | inconclusive [rising, partial curve] |  |
| COCC(C)n1c(SCc2nc3ccccc3c(=O)[nH]2)nc2ccccc2c1=O (stereo not given) | inconclusive [rising, single point] |  |
| CC1=CC(C2CC(=O)N(c3ccc(C)cc3)C2=O)CC2C(=O)N(c3ccc(C)cc3)C(=O)C12 (stereo not given) |  | inactive: -1.97% |
| Nc1nc2c3ccccc3nc(C3CC3)n2n1 |  | inactive: -0.592% |
| Cc1cc(C)c(NC(=O)Cn2nnc(C(=O)NCCc3ccccc3)c2N)c(C)c1 |  | inactive: -1.55% |
| CC(C)(C)C(=O)Nc1ccccc1N1CCN(C(=O)c2ccc(Cl)cc2)CC1 |  | inactive: 4.35% |
| Clc1nccnc1N/N=C/c1ccc(Br)cc1 |  | inactive: -66.3% |
| Cc1cc(NC(=O)CSC2=NCCS2)no1 | inconclusive [rising, partial curve] |  |
| COc1cc(/C=C(\C#N)C(=O)NCC2CCCO2)ccc1OCCC(C)C (stereo not given) |  | inactive: 2.16% |
| Cc1ccc2cc(CCNS(=O)(=O)c3ccc(Br)cc3)c(=O)[nH]c2c1C | inconclusive [rising, partial curve] |  |
| COc1ccc(C(=O)N/N=C/c2ccc(OC)c(COc3ccc(F)cc3F)c2)cc1 |  | inactive: 5.95% |
| CCCCC(O)(CCCC)C(=O)NN(C(=O)c1cccnc1Cl)c1ccccc1 |  | inactive: -1.48% |
